Results taken from the supplement of paper PMC3334620.
In all, about 33,000 sequences were measured (“E-score (-0.5 to 0.5)”: median about -0.01, highest 2% from about 0.26 on). This is one part of the list.

target: Ste12 (UniProt P13574); assay: PBM E-score (8-mer binding enrichment) (E-score (-0.5 to 0.5)); higher = stronger / more preferred TF binding; most listed sequences are background and not binding sites; settings: protein concentration: 200 nM; construct: GST-DNA-binding domain
Procedure: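 Universal 'all 10-mer' protein binding microarrays (Agilent AMADID 015681) probed with GST-tagged S. cerevisiae TFs (full-length or DBD) made by in vitro transcription/translation (PURExpress), about 100-200 nM. Bound TF was detected with fluorescent anti-GST. Each ungapped 8-mer (which stands for itself and its reverse complement) is scored by the PBM enrichment score (E-score), a modified Wilcoxon-Mann-Whitney statistic from -0.5 to +0.5, computed with the Universal PBM Analysis Suite. Scale: above 0.35 generally sequence-specific binding.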

Sequence | PBM E-score
CCAGATAG | -0.0151
CGGTATTC | 0.156
GGGTTGCA | -0.011
AAGATTGC | -0.0392
CTGCGTGA | -0.136
GGTATGAA | 0.14
GAGCCCAA | -0.164
CATGCACC | -0.128
CTCGAGTC | -0.0851
ATTATATC | 0.166
ATGGAGAC | -0.014
TAATCTGA | 0.0394
ACGCTTTA | -0.162
CGATTTCC | 0.0567
CAGGTCAC | -0.219
CTATCTGA | -0.0546
GCCGTCGC | -0.0253
GGCAGATA | -0.0829
CCCACCGA | 0.173
ATCGAAGG | -0.00355
GTGTGAAA | 0.307
GTAGTACA | -0.0577
ATCACGAT | -0.108
ACGCTAAG | -0.0711
GGACAGGA | -0.152

Sequence | PBM E-score
CATCCACA | -0.0354
CGACCATC | -0.0834
AACTTGAG | -0.123
ATGTGCTA | 0.0547
GTCCCACA | -0.0414
AGTAACTC | -0.206
TCAGATCA | -0.14
GTACGAGA | 0.055
ACATGACC | 0.0344
AGTAAGAC | -0.0577
GGTGAAAC | 0.463
ATTTCGAA | 0.253
CTTGTCCC | 0.0279
GAAACTCC | 0.22
CTTTTATC | 0.147
AGTGTGGG | -0.0494
AGCAAAGG | 0.114
GGCGATTA | -0.131
AATGCTAA | 0.0566
CAGGCGAC | -0.072
ACGCAGAG | -0.109
GGTTAAGA | 0.0651
AACATACT | 0.0629
TAACACCA | 0.188
CATAAGCA | 0.0276

Sequence | PBM E-score
ACATGTTA | 0.121
CTAGTATC | 0.0819
AGCCGAGG | 0.00737
AATTTGAA | 0.212
GATCTAGC | -0.165
CCGATAAG | -0.0182
CTATATGC | -0.0876
CGACGCTA | 0.00793
AGGTCTAT | 0.00791
AGATCAAT | -0.0352
TCTCGAGA | 0.22
ACCGCAGA | -0.0299
GCTTATAA | 0.0238
ATAGTGGC | -0.0977
ATAGGGGG | -0.298
CCCAAAAG | 0.0115
AAGGCTGG | -0.296
CTCACGAC | -0.039
AGTGGAGA | -0.0286
AGTCTGGC | -0.178
CGAACATC | -0.00548
GTCCCAGA | -0.0568
ACGACAGT | -0.147
AATACTCA | 0.0844
TACGCGCA | 0.0338

Sequence | PBM E-score
CCCGTGCA | -0.115
CCTCAGAG | -0.153
GATTGAAA | 0.243
AGCCTTAG | -0.132
AGGTGTGC | -0.164
ACATTATG | 0.0347
TAAAAAGA | 0.248
ACGTGCGC | 0.0385
ATCCGGCC | 0.145
CTTGACAC | 0.106
GCCCTATA | -0.124
CATGCTGA | 0.053
CAACGCCA | -0.00117
TTCCCAAA | 0.218
ACTTCAGG | -0.0766
AGAACATA | 0.119
ATACGAGC | -0.0348
CATACTGG | -0.0627
GTTCTGTA | -0.0098
AGCCGCCG | -0.024
ATACTGAA | -0.0326
AACACCTG | -0.0339
AAGGAACG | 0.0516
ATCATACG | -0.0371
GAAGCATC | -0.0946

Sequence | PBM E-score
CCAATGGA | -0.166
CAGCTGGC | -0.0259
CGTTGACC | -0.118
CTTAACGC | -0.077
ACCCCAGG | -0.259
CTGGAACC | -0.22
AACCAGCT | -0.00605
AGTCAGAT | -0.0683
CGTGATTA | -0.079
GAGTTAAC | -0.0983
CCAGGCGC | -0.157
AGGCTATG | -0.138
GAACATCA | -0.0739
GCTCGTCC | -0.0971
ATGTGTAA | -0.0557
CAGTGCGC | -0.183
ACGACGAC | -0.142
CGACTAGA | 0.011
CCAGGCTA | -0.0827
ACTCACCG | 0.0174
CCACGTCG | -0.0119
AGAATCAC | -0.209
GCTTACTA | 0.00559
ACAACGGG | 0.00389
AATCCATA | 0.0365

Sequence | PBM E-score
CGCGATAC | 0.0123
CGGAATCC | -0.0349
CTCGTGCA | -0.0913
GACACAAA | 0.155
CCTTTCTA | 0.102
CGTAGGAC | -0.246
AGGCGAGA | -0.195
AGAATGAG | -0.0488
ACAAGAAA | 0.28
ACCAGGAC | 0.0194
GGAACAAA | 0.229
GAAAATTA | 0.206
GCGACTCA | -0.131
TCACGTGA | -0.0719
GTCCCAAA | 0.077
CTAACTAC | -0.0421
CAGGCTCG | 0.00069
CTTGAGCA | -0.0692
ACGGCAAT | 0.0277
CATTTGAC | 0.0579
CCGACGGA | 0.0201
GTAGGACA | -0.0332
GAGCGGGC | -0.0749
AGGATGAA | 0.128
ATGGGCAC | 0.162

Sequence | PBM E-score
AGTATAAA | 0.228
CGTCTGTA | -0.0457
GCGCTCAC | -0.123
ACAATGGG | 0.07
CCCGCGTA | 0.0398
CTCGGTAC | -0.0909
TACCGGAA | -0.0157
CCCGACAA | 0.178
AGTAGAGA | -0.0874
CTAGGACC | -0.251
CTGCACGC | -0.179
AAGCCTAG | -0.272
ACAGATCG | -0.121
AGCTGCGG | -0.101
GCGCTATA | 0.0543
CACGTTAA | 0.109
TGAGACCA | 0.0123
ATCTGTTG | -0.0026
GAAACCCA | 0.246
CTTAACAA | 0.194
AGTCCCGG | -0.116
AAAGCTCA | -0.172
AGACAATC | 0.0818
CCGGGACG | -0.0294
CATCTCCA | 0.00191

Sequence | PBM E-score
ATTGACTG | 0.0633
TTATACAA | 0.0165
ATTTTCGG | 0.164
ACGAACAT | 0.044
CGCTGTAA | 0.0745
ACACATTG | 0.212
AGGGCCAG | -0.0826
TGCTTCCA | -0.204
ACTGCAGT | -0.207
AGAATTCA | 0.162
CTTCTGGA | -0.00383
GGCCTCCC | -0.0507
ACTCCCAT | 0.0994
CATCCGAC | 0.0518
ACAGGATG | 0.0588
ACAGGAGA | 0.206
ACTCCCAG | 0.092
ATCAGCCG | -0.109
ACATCCGC | 0.0592
TGGGAGAA | -0.106
CAATAGCG | 0.0681
CTATTAAC | -0.0267
AGCCCTAC | -0.109
GTGTTGCA | 0.159
GTCATCTA | 0.079

Sequence | PBM E-score
GACATGCC | -0.138
AGAAATCT | 0.118
GGGATTAA | 0.145
ATAAGGAA | 0.0633
AGCTCCAT | -0.0858
GGTATATA | 0.159
ACACTATA | 0.198
CATGAGGC | -0.141
GTCTATAA | 0.113
TAAACCCA | 0.173
CTTATCGA | 0.117
ATCAACAG | 0.16
AGATAGAA | -0.0615
ACAGGGAC | -0.169
CTCCGTGC | -0.128
AAGAGCGT | 0.0448
ATTCACAC | 0.14
GCTACGCA | 0.0244
GCTTCTGA | 0.145
